Measured values reported in PubChem BioAssay AID1508642 (National Center for Advancing Translational Sciences (NCATS), 2021).
The campaign covered roughly 43,000 compounds. About 200 (0.47%) were called active. Inconclusive results (about 12%) are left out. Calls follow the shape of the dose curve; as a rule, active = well fitted cell-killing curve with a large enough effect; inconclusive = small, poorly fitted or top-dose-only effect, or effect the other way; inactive = flat fitted curve, though single readings scatter. The list shows a part of the results.

Test: Cell viability qHTS assay in S16 Pmp22-F2sN cells; also: nearly all actives have a fitted effect of over 65% in size
Settings: S16 Pmp22-F2sN Schwann cells viability, CellTiter-Glo, 24 h; series mostly up to 57.5 µM; activity change, negative = cytotoxicity: at the top concentration
In short: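 Viability was measured by CellTiter-Glo luminescence (15 min, room temperature). This followed 24 h at 37 °C of compound exposure (23 nL pin transfer) in S16 Pmp22-F2sN Schwann cells, 500-1,000 per well.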
% is scaled to controls: 0 for no effect and ±100 for the full control effect.

Compound | activity change, negative = cytotoxicity
COc1ccccc1CN1COc2ccc3c(oc(=O)c4ccccc43)c2C1 | inactive: 14.4%
CCOC(=O)C1CCC(CN(Cc2ccc(Cl)cc2)S(=O)(=O)c2ccc(F)c(C(=O)Nc3cccc(F)c3)c2)CC1 (configuration not stated) | inactive: -8.46%
COc1ccccc1Nc1cc(C(=O)NC2CCCC2)c2ccccc2n1 | inactive: 15.8%
COc1ccc(/C=C/C(=O)Nc2sc3c(c2C(N)=O)CCCC3)cc1 | inactive: 16.6%
COc1ccc(S(=O)(=O)N2CCCCC2)cc1C(=O)Nc1cccc(C(F)(F)F)c1 | inactive: 2.04%
CCOC(=O)c1cnc(NCc2ccccc2OC)c2ccccc12 | inactive: -13.5%
COc1cccc2sc(=NC(=O)c3ccc(S(=O)(=O)N4CCCCC4)cc3)n(C)c12 | inactive: 8.5%
CCn1c(=O)cc(SCC(=O)NCCc2ccc(Cl)cc2)c2ccccc21 | inactive: -3.69%
Cc1ccc(CNC(=O)CCCCCn2c(=O)c3sccc3n(CC(=O)N(C)c3ccccc3)c2=O)cc1 | inactive: 3.69%
Cc1ccc(C(=O)Nc2ccc3oc(-c4ccc(C(C)(C)C)cc4)nc3c2)cc1 | inactive: 3.33%
COc1ccc(-c2ccc(=O)n(CC(=O)Nc3ccc(C)cc3C)n2)cc1 | inactive: 5.89%
COc1ccc(-c2noc(CCC(=O)NCc3ccc(C)cc3)n2)cc1 | inactive: 7.88%
O=c1n(Cc2cccc(C(F)(F)F)c2)c2ccccc2c2nc(-c3ccccc3)nn12 | inactive: 12.6%
Cc1ccc(NS(=O)(=O)c2ccc3[nH]c(=O)ccc3c2)cc1N(C)C | inactive: -2.81%
Cc1ccc(NC(=O)c2cc(C)nc3c2c(C)nn3-c2cccc(Cl)c2C)c(C)c1 | inactive: 2.66%
CCc1ccc2oc(C(=O)Nc3cccc(C(F)(F)F)c3)cc(=O)c2c1 | inactive: -4.25%
CSc1nn(Cc2ccc(Cl)cc2)c(N(C(C)=O)C(C)=O)c1S(=O)(=O)c1ccccc1 | inactive: 6.99%
COc1ccc(OC)c(CCNc2ncnc3onc(-c4ccc(F)cc4)c23)c1 | inactive: -2.3%
Fc1cc(Br)ccc1Nc1c2c(nc3nc(-c4cccs4)nn13)CCCC2 | inactive: -26.1%
O=C1CCCc2cc(S(=O)(=O)NCC3CCC(C(=O)Nc4ccccc4F)CC3)ccc2N1 (configuration not stated) | inactive: -6.2%
CC(NC(=O)c1ccccc1NC(=O)c1nsc2ccccc12)c1ccccc1 (configuration not stated) | inactive: -0.654%
CC(=O)c1ccc(NC(=O)C2=CC(c3ccc4c(c3)OCO4)=NS(=O)(=O)N2C)cc1 | inactive: -7.15%
CCCCOc1ccc(C(=O)N2CCN(CCc3ccccn3)CC2)cc1 | inactive: 5.12%
COC(=O)c1ccc(OC)c(Cn2c(=O)n(Cc3ccccc3)c(=O)c3c2c2cc(OC)ccc2n3C)c1 | inactive: 19.8%
CSc1ccc(-c2nc3ccc(C)cn3c2Nc2ccccc2C)cc1 | inactive: 8.57%
CS(=O)(=O)N(CC(=O)NCCc1ccccc1)c1cc(C(F)(F)F)ccc1Cl | inactive: -2.04%
Cc1cccc(-c2nnn3c2nc(NCCc2ccc(S(N)(=O)=O)cc2)c2cc(Cl)ccc23)c1 | inactive: 3.41%
